Source: PubChem BioAssay AID1865 (National Center for Advancing Translational Sciences (NCATS), 2009)
Values joined by “and” are separate entries in the source; they are usually repeats but may differ in a detail not shown here. Equal values may be shown once. Among all 280,000 compounds or so, about 540 (0.19%) were called active. The shares of active, inactive and inconclusive entries below differ from those in the screen. Calls come from the whole dose curve; as a rule, active = well fitted activation curve with a large enough effect; inconclusive = small, poorly fitted or top-dose-only effect; inactive = flat fitted curve, though single readings scatter. Potencies of inconclusive entries are doubtful fits and often do not repeat.

experiment: Quantitative High-Throughput Screen for Regulators of Epigenetic Control; conditions: murine LDR cells, GFP reporter derepression, 30 h; GFP activation: at 53.9 µM (top of the series); note: nearly all actives have a fitted effect of over 60% in size; for GFP activation: % of control where 0% means no effect
Procedure, shortened: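 Derepression of a silenced CMV-GFP reporter in murine LDR cells is scored by enumerating GFP-positive cells with a laser-scanning microplate cytometer after 30 hours of treatment at 37 C.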
Potency is the fitted concentration of half-maximal effect; tags give direction and shape of the fitted curve.

| Compound | Potency | GFP activation |
| --- | --- | --- |
| COc1ccc(NC(=O)CSc2ncc3c(n2)-c2cc(Cl)ccc2N(Cc2ccccc2F)S3(=O)=O)cc1 | inconclusive: 25.1 µM [activator, single point] | – |
| Cc1nc2ccn(Cc3cccs3)c(=O)c2cc1C(=O)N1CCN(c2ccc(F)cc2)CC1 | inconclusive: 35.5 µM [activator, single point] | – |
| O=C(Nc1ccc2c(c1)OCO2)C1CCN(c2ccc(S(=O)(=O)N3CCOCC3)cc2)CC1 | inconclusive: 25.1 µM [activator, single point] | – |
| Cc1cc(C)n2nc(SCCCC(=O)c3ccccc3)nc2n1 | inactive | – |
| CC1(C)CC(=O)/C(=C\c2cccc([N+](=O)[O-])c2)C(C)(C)N1 | inconclusive: 12.6 µM [activator, single point] | – |
| C=CCNC(=O)CN(c1ccc(F)cc1)S(=O)(=O)c1ccc(OC)cc1 | inactive | – |
| CCCCOC(=O)c1ccc(NC(=O)c2cc(-c3ccccc3)on2)cc1 | inactive | – |
| COc1ccc(NC(=O)c2ccc(Br)o2)c([N+](=O)[O-])c1 | inconclusive: 35.5 µM [activator, single point] | – |
| COc1ccc2c(c1)c(CC(=O)Nc1nnc(C3CC3)s1)c(C)n2C(=O)c1ccc(Cl)cc1 | inconclusive: 35.5 µM [activator, single point] | – |
| CCOC(=O)c1c(/N=C/N(C)C)sc(/C=N/Nc2ccccc2)c1-c1ccc(Cl)cc1 | active: 11.2 µM | – |
| CCc1ccc(NC(=O)Cn2c(=O)c(-c3ccccc3NC(C)=O)nc3ccccc32)cc1 | inconclusive: 35.5 µM [activator, single point] | – |
| Cc1nn(-c2ccc([N+](=O)[O-])cc2)c2c1C(c1cccc(Br)c1)N1C(=N2)C(=O)Nc2ccccc21 (stereo not drawn) | inconclusive: 25.1 µM [activator, single point] | – |
| O=C(CSc1cccc[n+]1[O-])CSc1cccc[n+]1[O-] | inconclusive: 0.178 µM [activator, partial curve, poor fit] | – |
| O=C(CN1C(=O)c2ccccc2C1=O)NN1C(=O)c2ccccc2C1=O | inactive | – |
| N/C(=N\OC(=O)c1cccc(Br)c1)c1ccccc1 | inactive | – |
| CCc1ccc(S(=O)(=O)c2nnn3c2nc(NCc2cccs2)c2sccc23)cc1 | inconclusive: 35.5 µM [activator, single point] | – |
| COc1ccc(CNS(=O)(=O)c2cc(C(=O)Nc3cc(Cl)cc(Cl)c3)ccc2F)cc1 | inconclusive: 0.708 µM [activator, single point] | – |
| CCN(CC)C(=O)c1sc2nc(-c3cccs3)cc(-c3cccs3)c2c1N | inconclusive: 25.1 µM [activator, single point] | – |
| CN1C/C(=C/c2ccsc2)C(=O)/C(=C/c2ccsc2)C1 | inconclusive: 31.6 µM [activator, single point] | – |
| CN1/C(=C\C=C2/SC(=S)NC2=O)C(C)(C)c2ccccc21 | inconclusive: 25.1 µM [activator, single point] | – |
| CCCCN1C(=O)/C(=C/C=C2\Oc3ccccc3N2CC)SC1=S | active: 1 µM | – |
| Cc1ccc(-c2nnc(N3CCN(C(=O)c4ccco4)CC3)c3ccccc23)cc1 | inactive | – |
| CC(C)CNC(=O)COC(=O)c1cc(S(=O)(=O)N2CCCCC2)ccc1N1CCOCC1 | inactive | – |
| COC(=O)C1=C(C)NC(C)=C(C(=O)OC)C1c1ccc(-c2cccc(Cl)c2Cl)o1 | inactive | – |
| COc1ccc(Nc2oc(/C=C/c3ccc(F)cc3)nc2C#N)cc1 | inconclusive: 11.2 µM [activator, partial curve] | – |

| Compound | Potency | GFP activation |
| --- | --- | --- |
| C(=C\c1ccccc1)/CSc1nnc(-c2cnccn2)n1Cc1ccco1 | inactive | – |
| COCCNC(=S)Nc1ccc(Cl)c(Cl)c1 | inactive | – |
| Cc1ccnc(NS(=O)(=O)c2ccc(NC(=O)c3cc(=O)c4ccc(C)c(C)c4o3)cc2)n1 | inactive | – |
| CC1=[N+](C)c2c(ccc3cccnc23)C1(C)C | inconclusive: 22.4 µM [activator, single point] | – |
| COc1cccc(C2c3[nH]c4ccccc4c3CCN2Cc2cnn(C)c2)c1 (stereo not drawn) | inactive | – |
| COc1ccc(C(=O)NNC2=Nc3cccc4cccc2c34)cc1 | inconclusive: 31.6 µM [activator, single point] | – |
| Cc1cc(=O)n2c(C(=O)Nc3ccc(C)c(C)c3)c(C(=O)Nc3ccccc3)sc2n1 | inconclusive: 25.1 µM [activator, single point] and inconclusive: 35.5 µM [activator, single point] | – |
| CC(C)(C)NC(=S)N/N=C\c1ccc(-c2ccc([N+](=O)[O-])cc2)o1 | active: 12.6 µM | – |
| C=CC(=O)NCC1OCCc2ccccc21 (stereo not drawn) | inactive | – |
| CCc1ccc(NC(=O)C(Cc2ccccc2)NS(=O)(=O)c2ccc3c(c2)CCN3C(C)=O)cc1 (stereo not drawn) | inactive | – |
| COC(=O)CC1=COC2OCC3=CC[C@@H]1C32 (stereo partly drawn) | – | inactive: 0% [at 10.1 µM] |
| O=c1c2ccccc2nc(SCc2nnc(-c3ccccc3Br)o2)n1-c1ccccc1 | inactive | – |
| Cn1c(=O)n(C)c2cc(NS(=O)(=O)c3ccc4c(c3)CCCC4)ccc21 | inactive | – |
| S=C(Nc1ccccc1Cl)NC1CC2CCCC(C1)N2C1CC1 (stereo not drawn) | inactive | – |
| COc1ccc(C2CC(c3cccs3)=NN2C(=O)CSc2nc3ccccc3s2)cc1 (stereo not drawn) | inactive | – |
| CC(C)NC(=S)NN=C1CCC(c2ccccc2)CC1 (stereo not drawn) | inconclusive: 12.6 µM [activator, single point] | – |
| COc1ccc(Cl)cc1NC(=O)CSc1nnc(C)n2c1cc1occc12 | inconclusive: 5.62 µM [activator, single point] | – |
| O=c1c2ccccc2nc(COc2ccccc2)n1/N=C/c1c[nH]c2ccccc12 | active: 10 µM | – |
| CCN(CC)Cc1ccc(Nc2ccnc3cc(Cl)ccc23)cc1O | inconclusive: 15.8 µM [activator, single point] | – |
| CCc1ccc(Nc2nnc(SC3CCOC3=O)s2)cc1 (stereo not drawn) | inconclusive: 28.2 µM [activator, single point] | – |
| Cc1sc(-c2cc3ccccc3oc2=O)nc1-c1ccc(Cl)cc1 | inactive | – |
| CC(C)NC(=O)CC(=O)N/N=C/c1cccs1 | inconclusive: 25.1 µM [activator, single point] | – |
| Oc1ccc(-c2csc(-c3ccccc3)n2)cc1O | inactive | – |
| Cc1[nH]c(-c2ccc3c(c2)OCO3)nc1C(=O)O | inactive | – |
| Cc1ccc(C(=O)Nc2cccc(OCc3cc(=O)n4c5c(sc4n3)CCCC5)c2)cc1 | inconclusive: 12.6 µM [activator, partial curve] | – |

| Compound | Potency | GFP activation |
| --- | --- | --- |
| CCC(C)C(NC(=O)OCc1ccccc1)C(=O)NC(Cc1ccc(O)cc1)C(=O)OC (stereo not drawn) | inactive | – |
| CCC(CO)Nc1nc2ccc(Cl)cc2c2ccccc12 (stereo not drawn) | inconclusive: 11.2 µM [activator, partial curve] | – |
| COC(=O)c1ccc(NC(=S)NC2CCCCC2C)cc1 (stereo not drawn) | inactive | – |
| COc1ccc(C(NC(=O)C(C)C)c2ccc3cccnc3c2O)cc1 (stereo not drawn) | active: 3.55 µM | – |
| Cc1ccccc1NC(=S)N(CCN1CCOCC1)Cc1ccccc1F | inconclusive: 3.98 µM [activator, single point] | – |
| COc1ccc2cc(C#N)c(SCC(=O)N3CC(=O)Nc4ccccc43)nc2c1 | inactive | – |
| Cc1ccc(NC(=O)CSc2ccc(-c3cccs3)nn2)cc1Cl | inconclusive: 12.6 µM [activator, partial curve] | – |
| COc1cc(C2C(C(=O)Nc3ccccc3C)=C(C)Nc3ncnn32)ccc1OCC(N)=O (stereo not drawn) | inactive | – |
| COc1cccc(N2CCN(S(=O)(=O)c3ccc(-n4cnnn4)cc3)CC2)c1 | inconclusive: 1.58 µM [activator, partial curve] | – |
| Cn1c(=O)oc2cc(S(=O)(=O)N3CCN(c4ccc(F)cc4)CC3)ccc21 | inconclusive: 35.5 µM [activator, single point] | – |
| O=C(N/N=C/c1ccccn1)c1cccs1 | inconclusive: 14.1 µM [activator, single point] | – |
| COc1ccccc1N1CCN(C(=O)c2nc(SC)ncc2Cl)CC1 | inconclusive: 35.5 µM [activator, single point] | – |
| COc1ccc(C2CC(c3cccs3)=NN2c2ccc(C=O)cc2)cc1 (stereo not drawn) | inconclusive: 12.6 µM [activator, partial curve] | – |
| CC1(C)C2CCC(C2)C1C/C=N/NC(N)=S (stereo not drawn) | inconclusive: 31.6 µM [activator, single point] | – |
| Cc1noc(C)c1COC(=O)Cc1ccc(Cl)cc1 | inconclusive: 35.5 µM [activator, single point] | – |
| COc1ccc(CNc2nc3c(-c4cccc(C)c4)nnn3c3ccccc23)cc1 | inactive | – |
| Cc1cccc(-n2c(O)c(C=Nc3cc(O)ccc3C)c3ccccc3c2=O)n1 | inconclusive: 31.6 µM [activator, single point] | – |
| CC1=NNC(=O)/C1=C\c1cn(-c2ccccc2)nc1-c1ccc(F)cc1 | inconclusive: 0.0045 µM [activator, full curve, poor fit] | – |
| N#C/C(=C/c1ccc(-c2ccc(S(N)(=O)=O)cc2)o1)c1nc2ccccc2s1 | inconclusive: 3.16 µM [activator, partial curve] | – |
| Nc1cc2nc3ccccc3oc-2cc1=O | inconclusive: 22.4 µM [activator, single point] | – |
| Cc1ccc(/C=C2\Oc3cc(OC(=O)N4CCOCC4)ccc3C2=O)cc1 | inactive | – |
| N#C/C(=N\Nc1ccccc1F)c1nc(-c2ccccc2)cs1 | inconclusive: 5.01 µM [activator, full curve] | – |
| O=C(CCCCn1c(=O)c2ccccc2n(Cc2ccccc2Cl)c1=O)NCCc1ccccc1 | inactive | – |
